In the RNAGym collection of RNA variant scans (doi:10.7554/elife.90254):
Read counts are not given, so values of variants with three or more changes are uncertain.

B1: OR4K15 (parent)
chain: GUUAACGGUCAUAGGCCAUGGAAACUAGGAGCACCAUUUCGCUGCCAGUGAAGAAAUGAACAAAGAAAAUCUGGGCCAGGCAGGCAUCAAAAGAAAUAGUCUUGCGCUCAACCAGAAAGUCUGUAAUCAUUUUAAGGGUA

Variants of: B1
Assay: self-cleavage, relative activity (ratio to wild type); higher = more cleavage; in vitro, sequencing; the parent is a self-cleaving ribozyme
In the case of A30U A62G A118U A129U, the self-cleavage is reported as 0.26.
For G31U U39C A47G U72C A78G, the self-cleavage was 0.35.
In the case of A30U A117G U127C, the self-cleavage is reported as 0.87.
A30G A51G A52G showed a self-cleavage of 0.93.
A33G C40U A51G gave a self-cleavage of 1.23.
A30U A68G A90G U139C gave a self-cleavage of 1.61.
For A30G C71U U122G, the self-cleavage was 0.75.
With A30U A52G U70A U131C the self-cleavage was 0.62.
For C32U A33G A52G A78G C128A, the self-cleavage was 0.35.
With A30G A33G A94G the self-cleavage was 1.07.
In the case of A30G A59G A62U A95G A110G A118G, the self-cleavage is reported as 0.2.
For A30G A98G A117G, the self-cleavage was 0.16.
With A30G U39C U57C U100A the self-cleavage was 0.12.
A33G A63G A78G A98G U120C gave a self-cleavage of 0.06.
Variant A30G U72C A116U has a self-cleavage of 0.02.
With A30G U37C A89U A114G U122C the self-cleavage was 0.21.
Variant C32A A51U U124C has a self-cleavage of 0.77.
Variant A30G A47G A116G has a self-cleavage of 0.53.
A30G U37C A117G showed a self-cleavage of 1.57.
Work on A33G A62G G73A yielded a self-cleavage of 0.07.
With A30U U124C A126G the self-cleavage was 0.83.
Work on A30G U39A U131C yielded a self-cleavage of 1.05.
G29A U49C A92G showed a self-cleavage of 1.02.
A33C G50U A78U showed a self-cleavage of 0.53.
In the case of A33G A91G A94U A111U, the self-cleavage is reported as 0.06.
A33G A96G A114G G119A gave a self-cleavage of 0.69.
For A33G A78G A86G A89G U103C, the self-cleavage was 0.1.
Work on A30C A59U A63C yielded a self-cleavage of 2.38.
Work on A30G U49C U70C U87C yielded a self-cleavage of 0.27.
Work on A30G A64G A66G U108C yielded a self-cleavage of 0.07.
With A30U U57C U72C G80A A82U U133G the self-cleavage was 0.21.
Work on A30G A47G U103C A114U yielded a self-cleavage of 0.02.
A30G A52G U70C gave a self-cleavage of 1.23.
In the case of A30G C35U A114U U122C, the self-cleavage is reported as 0.03.
Work on A30U U37C U100A yielded a self-cleavage of 0.53.
In the case of A33G A66G A86U U108C A116G, the self-cleavage is reported as 0.
For G31U A59G A110G, the self-cleavage was 0.13.
A30G A54U U120A gave a self-cleavage of 1.23.
In the case of A33G A52G U87A A118G, the self-cleavage is reported as 0.18.
In the case of A30G A59G U72C A91G, the self-cleavage is reported as 0.23.
In the case of A30G A89G A114U U132C, the self-cleavage is reported as 0.03.
Work on A30G A33G A52G A67G A111G A116G U139C yielded a self-cleavage of 0.
For G29U U49C A60G, the self-cleavage was 1.05.
A33G C45A A55G U103C A125G showed a self-cleavage of 0.03.
Work on A30G A67G A96G A111G A114G G123A yielded a self-cleavage of 0.02.
Work on A30G A51G A90G yielded a self-cleavage of 1.49.
A33G A36U U37A A82C A94G U102A U108G gave a self-cleavage of 0.01.
Work on A30G U37C A134G yielded a self-cleavage of 1.66.
Work on A30G U37C U100C U108C yielded a self-cleavage of 0.02.
In the case of A30G A92G A134G, the self-cleavage is reported as 1.18.
Variant A30G A86G U108A has a self-cleavage of 0.01.
G31A A91G A94G U132A gave a self-cleavage of 0.75.
In the case of A30G A64G G137U, the self-cleavage is reported as 0.97.
With G31U U37C A64G A140G the self-cleavage was 2.51.
For A33G G41A A47U A111G U120C, the self-cleavage was 0.01.
Variant A30G A89G C109A A114C has a self-cleavage of 0.
For G29U A54G A68G C105U, the self-cleavage was 0.16.
Work on A33G A36G A135G yielded a self-cleavage of 0.44.
For A33G A116G A129G U132C, the self-cleavage was 0.15.
A33G A52G A90G showed a self-cleavage of 0.24.
Variant A30G A52G A62G A67G U124C has a self-cleavage of 1.03.
Variant A30U A82G U124A has a self-cleavage of 0.05.
For A30G U102C U133C, the self-cleavage was 1.29.
A33G A78G A117U showed a self-cleavage of 0.07.
In the case of A30G A47G A67G A89U U102C, the self-cleavage is reported as 2.14.
With A33G A62G A63G the self-cleavage was 0.3.
Variant A30G A117G U133A has a self-cleavage of 1.53.
A30G A64G A67G A118G A126G U132G showed a self-cleavage of 0.8.
A33G A59G U87C U100C gave a self-cleavage of 1.31.
In the case of A30G A64G U72A, the self-cleavage is reported as 0.28.
For A33G A62G U72A, the self-cleavage was 0.05.
With A33G A64U U102C the self-cleavage was 1.12.
A33G A52G U139A gave a self-cleavage of 0.72.
For C32U U43C U57C, the self-cleavage was 1.58.
For A30C A66G A92U A94G U108A, the self-cleavage was 0.
Work on A30U A66G A69U A78G yielded a self-cleavage of 0.16.
Variant A33G A116G A140G has a self-cleavage of 0.39.
A33G A68G A95G showed a self-cleavage of 0.77.
A30U A94G U132A showed a self-cleavage of 0.82.
A30U U57A C76U A117G U124A gave a self-cleavage of 0.05.
Variant A30G U49A A52G has a self-cleavage of 0.58.
Work on A30G A59G U70C yielded a self-cleavage of 0.64.
G29U A67G A95G C107U gave a self-cleavage of 0.01.
Variant C32U U100A U127C U130C U133C has a self-cleavage of 0.23.
Work on A33G C81U A116G yielded a self-cleavage of 0.06.
With A30G A55G U130A the self-cleavage was 0.5.
For C32U U43C A118G, the self-cleavage was 2.16.
In the case of A30G U37C U43C A64C G104A A114G, the self-cleavage is reported as 0.
In the case of A33G A54G U87C A114G, the self-cleavage is reported as 0.41.
For A33G A51G A68G A69G A96U A129G, the self-cleavage was 0.38.
In the case of A30G A33G U132C, the self-cleavage is reported as 1.19.
With G29U A55G A86G A95G the self-cleavage was 2.51.
With A33G A51U A67G A86G the self-cleavage was 1.17.
A30U A63G A86U showed a self-cleavage of 2.07.
A30G A59G A94G showed a self-cleavage of 0.67.
For A33G A60G A69U, the self-cleavage was 1.24.
In the case of A33G A66G C71U U72C U102C, the self-cleavage is reported as 0.29.
A30U A59U A69G A125G A126G gave a self-cleavage of 0.33.
A30G A95U A116G showed a self-cleavage of 1.05.
In the case of A30G A33G A64G A66U A86G A111G A118G, the self-cleavage is reported as 0.02.
A30U A56G U70C gave a self-cleavage of 0.45.
With C32G A60G C85A the self-cleavage was 1.32.
Work on G29A U57C A111U yielded a self-cleavage of 0.04.
With A30G A51G A98G A117G the self-cleavage was 0.62.
With C32U G44U A54G A56G A68G A98G A114C the self-cleavage was 0.04.
For G29U U57C U108A, the self-cleavage was 0.01.
A30G A64G A117G A135G showed a self-cleavage of 1.11.
With A33C A47G A126G the self-cleavage was 0.88.
Work on A30G A59U A91U yielded a self-cleavage of 1.22.
In the case of A33G C40U A78G, the self-cleavage is reported as 0.24.
G31U A68G A140G showed a self-cleavage of 1.98.
A30G A90G A96G C113G A114C showed a self-cleavage of 0.01.
A30U U38C U103C U131C showed a self-cleavage of 0.48.
For A33G A116U U133C, the self-cleavage was 0.26.
Work on A33G A68C U102C yielded a self-cleavage of 1.62.
Work on C32U G123U U130C yielded a self-cleavage of 1.68.
Variant G29U A56G A62G A98C A110C has a self-cleavage of 0.19.
A30G A47C A51G U102C U120C U122C showed a self-cleavage of 0.31.
Work on A30G U57C A68G G80A A90U yielded a self-cleavage of 0.2.
A30G G83U C85U gave a self-cleavage of 0.62.
With A30G U38C A55U A60G A64G A67G U130C the self-cleavage was 0.62.
A30G A64G A69G A92G gave a self-cleavage of 0.58.
In the case of A30U A96G A111G, the self-cleavage is reported as 0.
Variant G31A U70C A90G has a self-cleavage of 0.44.
Work on A30G G58U A64U G74U yielded a self-cleavage of 0.11.
Variant A30G A110C U124C U133C has a self-cleavage of 0.29.
A30G A55G U72G showed a self-cleavage of 0.33.
Work on A30G A52U A63G U87A A114C A118U yielded a self-cleavage of 0.03.
In the case of G31U A69G U102A, the self-cleavage is reported as 0.58.
A30G A36G A51G A118U showed a self-cleavage of 0.34.
A33G A47G A134U showed a self-cleavage of 0.89.
Variant A33G A54G C105U has a self-cleavage of 0.19.
For A30U A55U A89G, the self-cleavage was 1.41.
A30G C71U C76U A82G gave a self-cleavage of 0.52.
A30G U39C G80A A90G U130C showed a self-cleavage of 0.22.
For A33G A69G U139C, the self-cleavage was 0.98.
In the case of A33G G44A A78G A96C A111G A117G, the self-cleavage is reported as 0.02.
Variant A30G U87C U122C U127C has a self-cleavage of 0.54.
With A30G A64G U97C G115A the self-cleavage was 0.13.
Work on G31A A52G A129G yielded a self-cleavage of 1.34.
Variant A33G A54U A68G A82U A95G U103C U131C has a self-cleavage of 0.05.
Variant A33G A52G A54G U100C has a self-cleavage of 1.47.
In the case of A33G A66G U87C A114U, the self-cleavage is reported as 0.03.
Work on A33G A86G U87C yielded a self-cleavage of 0.15.
A30U A69U A98G U108A gave a self-cleavage of 0.01.
A33G A47G A98C A117U A140U showed a self-cleavage of 0.42.
Work on A30G U43C A69U yielded a self-cleavage of 1.37.
Variant A30G U38C A56G has a self-cleavage of 0.74.
Work on A30U A51G A140G yielded a self-cleavage of 0.27.
In the case of A33G A55G A66G A91U, the self-cleavage is reported as 1.35.
A30G U38A A55U G106A showed a self-cleavage of 0.02.
Variant A30G G41U A56G U57C A60G A63U has a self-cleavage of 1.18.
Work on A30G A86G A96G A116C yielded a self-cleavage of 0.18.
In the case of A30G A55G A64U A86G A92G A118G, the self-cleavage is reported as 0.57.
C32U A60U A96G showed a self-cleavage of 1.63.
With A30G U39C C81U the self-cleavage was 0.4.
Variant A30U U43G A67G A117G has a self-cleavage of 2.88.
With A30G A96G A114U the self-cleavage was 0.15.
With G31A A62U A64G the self-cleavage was 1.21.
A30G A96G U100G U132C gave a self-cleavage of 1.04.
A30G G50A A51G A117G U132G gave a self-cleavage of 1.53.
For G29U A36C A62U, the self-cleavage was 2.16.
Work on A33G A66G A117G U132C yielded a self-cleavage of 0.5.
A30G A55U A110G U120C showed a self-cleavage of 0.08.
A30G A33G A60G showed a self-cleavage of 0.59.
With A33G A67G A68G U132C G137C the self-cleavage was 0.89.
With A30G U87C A91C U108C the self-cleavage was 0.05.
